According to patent publication US9598481B2 (priority 2012, dated 2017):

Test system: H1N1 A/PR/8/1934
Settings: mouse, in vivo

CCOC(=O)C1=C[C@@H](OC(CC)CC)[C@H](NC(C)=O)[C@@H](N)C1 [oseltamivir, oseltamivir phosphate]
mortality compared with control-treated animals: very similar | mice protected from lethality (iv, 15 mg/kg): 37.5%
